# Experimental data published in PubChem BioAssay AID504332 (National Center for Advancing Translational Sciences (NCATS), 2011).
# Among all 350,000 compounds or so, about 31,000 (8.9%) were called active. Inconclusive results, whose numbers are uncertain, are shown with a selection of clear calls. Calls follow the shape of the dose curve; as a rule, active = well fitted inhibition curve with a large enough effect; inconclusive = small, poorly fitted or top-dose-only effect; inactive = no such curve, though single readings can be large or run the other way. Where the call is inconclusive, the potency comes from a doubtful curve fit.
# Biological target: Histone-lysine N-methyltransferase EHMT2 (Homo sapiens) (UniProt Q96KQ7)
# Assay: qHTS Assay for Inhibitors of Histone Lysine Methyltransferase G9a; also: nearly all actives have a fitted effect of over 75% in size
# Settings: G9a H3K9 monomethylation, AlphaScreen, 2 h; activity, negative = inhibition: at 59 µM (top of the series) unless noted
# Outline: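 Step 1: enzyme (final 20 nM) with compound, 15 min RT. Step 2: substrate peptide 500 nM and SAM 20 uM, 2 h RT. Step 3: anti-H3K9me1 antibody and AlphaScreen beads, 10 min, then plate read.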
# % is scaled to controls: 0 for no effect and ±100 for the full control effect; potency is read from the fitted curve at half-maximal effect; tags tell the direction and shape of the fitted curve.
# Sequence of UniProt Q96KQ7 (Q96KQ7 whole entry, looked up): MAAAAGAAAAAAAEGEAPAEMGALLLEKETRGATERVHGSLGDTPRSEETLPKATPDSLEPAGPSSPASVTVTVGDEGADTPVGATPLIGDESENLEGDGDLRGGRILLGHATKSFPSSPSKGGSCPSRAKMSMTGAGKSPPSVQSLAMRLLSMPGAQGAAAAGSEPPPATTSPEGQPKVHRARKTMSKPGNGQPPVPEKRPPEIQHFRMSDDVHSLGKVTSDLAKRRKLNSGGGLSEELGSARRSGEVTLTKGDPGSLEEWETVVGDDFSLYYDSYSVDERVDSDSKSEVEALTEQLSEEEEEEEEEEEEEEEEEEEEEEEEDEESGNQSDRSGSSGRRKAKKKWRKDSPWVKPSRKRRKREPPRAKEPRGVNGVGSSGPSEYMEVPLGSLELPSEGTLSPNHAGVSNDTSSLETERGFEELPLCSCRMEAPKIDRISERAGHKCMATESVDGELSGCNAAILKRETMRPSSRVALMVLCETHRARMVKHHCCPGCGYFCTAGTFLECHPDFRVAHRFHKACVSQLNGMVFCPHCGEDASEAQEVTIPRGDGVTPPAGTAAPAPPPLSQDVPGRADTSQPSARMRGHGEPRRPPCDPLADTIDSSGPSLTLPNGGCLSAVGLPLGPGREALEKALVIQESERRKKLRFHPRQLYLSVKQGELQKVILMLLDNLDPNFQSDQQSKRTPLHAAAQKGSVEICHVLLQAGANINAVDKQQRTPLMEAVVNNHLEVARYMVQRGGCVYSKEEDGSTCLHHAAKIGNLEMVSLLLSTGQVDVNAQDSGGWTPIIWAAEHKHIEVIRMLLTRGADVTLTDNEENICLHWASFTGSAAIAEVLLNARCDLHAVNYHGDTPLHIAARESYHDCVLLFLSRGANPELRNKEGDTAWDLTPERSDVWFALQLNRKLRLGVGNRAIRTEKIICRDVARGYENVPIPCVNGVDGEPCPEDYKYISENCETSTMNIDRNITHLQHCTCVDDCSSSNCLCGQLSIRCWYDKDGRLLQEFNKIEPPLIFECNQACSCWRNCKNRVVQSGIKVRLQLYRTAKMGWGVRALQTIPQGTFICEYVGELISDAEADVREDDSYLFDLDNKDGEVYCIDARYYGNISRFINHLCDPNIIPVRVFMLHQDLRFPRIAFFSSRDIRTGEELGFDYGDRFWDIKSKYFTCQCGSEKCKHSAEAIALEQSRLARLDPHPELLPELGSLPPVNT
Compound,Potency,"activity, negative = inhibition"
COc1cc2c(cc1NC(=O)CN(C)Cc1ccc(OC)c(OC)c1)oc1ccccc12,"inconclusive: 70.8 µM [inhibitor, single point]",
Cn1cccc1-c1nc2ccc(NC(=O)c3cccs3)cc2[nH]1,,inconclusive: -106% [inhibitor]
CCc1c(C(=O)Nc2ccccc2)c(C)[nH]c(=S)c1C#N,active: 1.58 µM,
CN(C)CCNC(=O)COc1ccc(C23CC4CC(CC(C4)C2)C3)cc1,active: 50.1 µM,
COc1cccc2c1cc1c(=O)n(CC(=O)N3CCN(c4ccc(Cl)cc4)CC3)nc(C)n12,inactive,
Fc1ccc(Nc2ncnc3onc(-c4cccc(Cl)c4)c23)c(F)c1,inactive,
COc1cc(/C(C)=N/Nc2ccc(C(=O)O)cc2)cc(OC)c1OC,"inconclusive: 89.1 µM [inhibitor, single point]",
C=CCn1c(SC(CCO)C(=O)NCc2ccco2)nc2sc3c(c2c1=O)CCC3 (stereo unspecified),inactive,
CN1CCN(/N=C/c2ccc(-c3ccc([N+](=O)[O-])cc3Cl)o2)CC1,active: 25.1 µM,
CCCc1cc(=O)oc2cc(OCC(=O)NCC3CCC(C(=O)O)CC3)ccc12 (stereo unspecified),"inconclusive: 89.1 µM [inhibitor, single point]",
Cc1ccc(NS(=O)(=O)c2ccc3c(c2)n(C)c(=O)n3C)cc1C,"inconclusive: 20 µM [inhibitor, single point]",
COc1cc(/C=N/NC(=O)c2cccc(S(=O)(=O)N3CCCCC3)c2)cc(Br)c1O,"inconclusive: 15.8 µM [inhibitor, full curve]",
O=C(CSc1nnc(SCc2ccccc2)s1)NNC(=S)Nc1ccccc1,active: 2.24 µM,
O=C(O)c1ccc(S(=O)(=O)Cc2ccccc2)cc1,,inactive: 11.9% [at 12.7 µM]
Cc1ccc(C)c(-n2c(C)cc(/C=N/NC(=O)c3c(C)nc4cc(C)ccn34)c2C)c1,"inconclusive: 39.8 µM [inhibitor, single point]",
CC1CCCCN1S(=O)(=O)c1ccc(C(=O)Nc2nnc(-c3ccncc3)o2)cc1 (stereo unspecified),inactive,
O=C(CS(=O)(=O)c1ccccc1)Nc1nc(-c2ccc(F)cc2)cs1,"inconclusive: 89.1 µM [inhibitor, partial curve, poor fit]",
Cn1c(=O)c2c(-c3cccc(Br)c3)n(C(C)(C)CO)cc2n(C)c1=O,"inconclusive: 31.6 µM [inhibitor, partial curve, poor fit]",
O=C(c1cc(N2C(=O)C3C4CCC(C4)C3C2=O)ccc1Cl)N1CCN(c2ccccc2F)CC1 (stereo unspecified),inactive,
CCCN1C(=O)c2cc(C(=O)Nc3ccc(OC)cc3OC)ccc2C1Nc1ccc(OC)cc1OC (stereo unspecified),active: 22.4 µM,
CC(C)=CCc1c(O)cc2oc3c(CC=C(C)C)c(O)c(O)c(CC=C(C)C)c3c(=O)c2c1O,,inactive: 17% [at 12.7 µM]
COCCN(C(=O)COC(=O)CSc1ccccc1)c1c(N)n(Cc2ccccc2)c(=O)[nH]c1=O,"inconclusive: 89.1 µM [inhibitor, single point]",
CC(C)(C)C(=O)NC(=S)N1CCc2ccccc21,active: 20 µM,
Cc1ccc(N2CC(C(=O)Nc3cc(Cl)ccc3-n3cncn3)CC2=O)cc1 (stereo unspecified),"inconclusive: 20 µM [inhibitor, partial curve, poor fit]",

Compound,Potency,"activity, negative = inhibition"
CCOc1ccccc1NC(=O)CSc1nnc2[nH]c(=O)cc(-c3ccccc3)n12,"inconclusive: 3.55 µM [inhibitor, single point]",
COc1ccc(C(=O)NC(C)c2nnc(SCc3ccc(Cl)c(Cl)c3)n2C)cc1 (stereo unspecified),active: 31.6 µM,
CC(C)c1nc(SCC(=O)N2CCN(c3ccccc3)CC2)c2c(=O)n(C)c(=O)n(C)c2n1,"inconclusive: 25.1 µM [inhibitor, full curve, poor fit]",
Cc1cc(C)cc(NC(=O)Cn2cc(S(=O)(=O)NC(C)(C)C)c(S(=O)(=O)NC(C)(C)C)c2)c1,inactive,
O=C(O)c1ccc(CS(=O)(=O)Cc2ccccc2F)o1,"inconclusive: 89.1 µM [inhibitor, single point]",
COc1ccccc1/C=N/NC(=O)C(=O)NCc1cccnc1,"inconclusive: 1 µM [inhibitor, partial curve, poor fit]",
COc1ccc(-n2ccnc(NCc3ccccc3OC)c2=O)cc1,inactive,
CC1=Nn2c(nnc2-c2ccc(F)cc2)SC1,"inconclusive: 35.5 µM [inhibitor, partial curve, poor fit]",
COc1cc(/C=N/NC(=O)c2cccc([N+](=O)[O-])c2)ccc1OCc1ccccc1,inactive,
CNC(=O)c1c(NC(=O)c2ccc(S(=O)(=O)N3CCCCC3)cc2)sc2c1CCC2,inactive,
COc1ccc(-c2cc(C(F)(F)F)nc(S(C)(=O)=O)n2)cc1,inactive,
CCOC(=O)c1sc2ccccc2c1S(=O)(=O)Nc1ccc(CC)cc1,"inconclusive: 15.8 µM [inhibitor, partial curve, poor fit]",
Cn1c2ccccc2c2c(C(=O)N3CCN(c4ccccn4)CC3)cn(C3CCCC3)c(=O)c21,"inconclusive: 89.1 µM [inhibitor, single point]",
CC(=O)N1CCC(C(=O)NCCOc2cccc(C)c2)CC1,inactive,
Cc1ccccc1NS(=O)(=O)c1cc(OCC(N)=O)c(C)cc1Cl,inactive,
Cc1cccnc1NC(=S)NCCc1ccccc1,active: 0.708 µM,
Cc1nc(-c2cccs2)ccc1C(=O)O,"inconclusive: 89.1 µM [inhibitor, partial curve, poor fit]",
c1ccc2c(c1)nnn2Cc1nnc2sc(-c3ccc4c(c3)OCCO4)nn12,"inconclusive: 3.16 µM [inhibitor, partial curve, poor fit]",
C(=N\Nc1nc2ccccc2[nH]1)/C1CCCCC1,"inconclusive: 50.1 µM [inhibitor, partial curve, poor fit]",
CCOC(=O)c1cc2c(=O)n3ccccc3nc2n(C(C)C)c1=NC(=O)c1cc2ccccc2o1,inactive,
CCc1cc(=O)oc2cc(C)c(CN3CCCC3)c(O)c12,active: 44.7 µM,
O=C(NCCCN1CCOCC1)c1ccc(CSc2ccc(Cl)cc2)cc1,"inconclusive: 25.1 µM [inhibitor, full curve]",
COc1ccc(-c2nc(CN3CCC(C(=O)N4CCOCC4)CC3)c(C)o2)cc1C,inactive,
O=C(c1cc(-c2ccc(Cl)cc2)on1)N1CCN(c2ccccc2)CC1,inactive,

Compound,Potency,"activity, negative = inhibition"
O=C(CSc1nnc(C2COc3ccccc3O2)o1)N1CCCCC1 (stereo unspecified),"inconclusive: 100 µM [inhibitor, single point]",
Cc1cccc(/C=N/NC(=O)C(C)Nc2cccc3ccccc23)n1 (stereo unspecified),"inconclusive: 2.51 µM [inhibitor, full curve, poor fit]",
CCN(CCCNC(=O)CCNC(=O)Cn1cnc2ccccc2c1=O)c1ccccc1,"inconclusive: 79.4 µM [inhibitor, partial curve, poor fit]",
O=S(=O)(Nc1cc(F)ccc1F)c1ccc2[nH]c3c(c2c1)CCCC3,"inconclusive: 12.6 µM [inhibitor, partial curve]",
COc1cccc(C(=O)NCc2ccc3[nH]c(C)cc3c2)c1,active: 35.5 µM,
COc1ccc(CCN2C(=O)CC(C(N)=O)SC2=Nc2ccccc2)cc1 (stereo unspecified),"inconclusive: 31.6 µM [inhibitor, partial curve, poor fit]",
CN(Cc1ccco1)c1ncnc2ccc(-c3cccc(NS(C)(=O)=O)c3)cc12,,inactive: 5.49% [at 0.501 µM]
Cn1c(SCC(=O)N/N=C/C=C/c2ccco2)nc2ccccc21,active: 7.08 µM,
FC(F)(F)c1ccccc1CN1CCN(C2CCCCCC2)CC1,active: 2.51 µM,
CCCCNC(=S)NCc1ccc2c(c1)cc(C)n2C,"inconclusive: 50.1 µM [inhibitor, partial curve, poor fit]",
CC1C(=O)C(C)C(c2ccccc2F)NC1c1ccccc1F (stereo unspecified),"inconclusive: 0.562 µM [inhibitor, partial curve, poor fit]",
COc1ccc(NC(=O)CN(C)C(=O)c2cccc3ccccc23)cc1,"inconclusive: 44.7 µM [inhibitor, partial curve, poor fit]",
Cc1c(N=Cc2ccco2)c(=O)n(-c2ccccc2)n1C,"inconclusive: 22.4 µM [inhibitor, partial curve, poor fit]",
CCn1c(O)c(N=NC(=S)NCC2CCCO2)c2ccccc21 (stereo unspecified),"inconclusive: 100 µM [inhibitor, single point]",
O=C(COC(=O)/C=C/c1ccc([N+](=O)[O-])cc1)Nc1ccc2[nH]c(=O)[nH]c2c1,active: 50.1 µM,
O=C(NCSc1ccnc(SCNC(=O)c2ccccc2)n1)c1ccccc1,active: 3.98 µM,
COCCNC(=O)c1ccc(C(=O)C(=O)c2ccccc2)cc1,"inconclusive: 0.199 µM [inhibitor, partial curve, poor fit]",
COc1ccc(CNC(=O)c2cnccn2)cc1,"inconclusive: 0.794 µM [inhibitor, full curve, poor fit]",
CCOC(=O)N1CCN(C(=O)Cn2c(=O)sc3ccccc32)CC1,"inconclusive: 1.41 µM [inhibitor, single point]",
Cc1cc(-c2nc3ncccc3o2)ccc1NC(=O)COc1ccccc1C,inactive,
CCn1c(SCC(=O)Nc2nccs2)nnc1-c1ccncc1,,inactive: -2.99% [at 12.7 µM]
CCC(C)(C(=O)NC1CCCC1)N(C(=O)CC1NC(=O)NC1=O)c1ccc(C)cc1 (stereo unspecified),inactive,
CC(C)CC1Nc2ncnc(N3CCN(c4ccccc4)CC3)c2N(Cc2ccc(Br)cc2)C1=O (stereo unspecified),"inconclusive: 3.98 µM [inhibitor, single point]",
